From PubChem BioAssay AID588855 (National Center for Advancing Translational Sciences (NCATS), 2011)
“And” between values parts separate entries of the source, which are not always exact repeats. Equal values may be shown once. The whole screen tested about 410,000 compounds, of which about 5,000 (1.2%) were called active. Inconclusive results, whose numbers are uncertain, are shown with a selection of clear calls. The call rests on the fitted dose curve; in most records, active means well fitted inhibition curve with a large enough effect; inconclusive means small, poorly fitted or top-dose-only effect; inactive means no such curve, though single readings can be large or run the other way. Where the call is inconclusive, the potency comes from a doubtful curve fit.

assay: qHTS for Inhibitors of TGF-b; details: HepG2 CAGA-GFP TGF-b/SMAD3 reporter, GFP fluorescence, 18 h, TGF-beta stimulated, 500 pg/mL final; series mostly up to 46.1 µM; further: nearly all actives have a fitted effect of over 65% in size
Summary of the method: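 HEPG2 CAGA-GFP cells (1000/well, DMEM with 1% FBS) were pre-incubated 2 h at 37 degrees C, given compound by pin tool, then stimulated with TGF-beta at 500 pg/mL final for 18 h before per-cell GFP fluorescence imaging.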
Potency means the concentration at half of the fitted maximal effect; tags describe the fitted curve by direction and shape.

| SMILES | Potency |
| --- | --- |
| CCOC(=O)C(NC(=O)c1ccc(OC)cc1)(OCC1(CC)COC1)C(F)(F)F (stereo not drawn) | inconclusive: 5.62 µM [inhibitor, single point] |
| CCCc1nnc(NC(=O)c2nc(S(=O)(=O)Cc3cccc(C)c3)ncc2Cl)s1 | inconclusive: 35.5 µM [inhibitor, single point] |
| CCOC(=O)c1ccc(NC(=O)NCCOCCn2c(=O)oc3ccccc32)cc1 | inconclusive: 35.5 µM [inhibitor, partial curve, poor fit] |
| CSCCC(NC(=O)c1ccc([N+](=O)[O-])cc1Cl)C(=O)OCC(=O)NCCCc1ccccc1 (stereo not drawn) | active: 15.8 µM |
| CCOc1ccc(OCC)c(NC(=O)Cn2nc(CC)n3c(cc4sccc43)c2=O)c1 | inconclusive: 0.447 µM [inhibitor, full curve, poor fit] |
| Cc1ccc(/C=N/NC(=O)CSc2nc3ccccc3n2Cc2ccc(Cl)cc2)o1 | inconclusive: 15.8 µM [inhibitor, single point] |
| O=C(c1ccccc1)C(CN1CCCCC1)c1ccccc1 (stereo not drawn) | inconclusive: 35.5 µM [inhibitor, single point] |
| COCCCNc1nc2c(-c3cccc(C)c3)nnn2c2ccc(Cl)cc12 | inconclusive: 15.8 µM [inhibitor, single point] |
| O=C(CN1c2cccc3cccc(c23)S1(=O)=O)Nc1ccc(S(=O)(=O)N2CCOCC2)cc1 | inconclusive: 3.98 µM [inhibitor, single point] |
| Nn1c(SCC(=O)N2CCN(S(=O)(=O)c3ccc(Cl)cc3)CC2)nnc1-c1cccs1 | inconclusive: 25.1 µM [inhibitor, single point] |
| CCOC(=O)C1(CCOc2ccccc2)CCN(Cc2ccc(C#CCCO)cc2)CC1 | inconclusive: 35.5 µM [inhibitor, single point] |
| CC(C)(C)Cc1c(-c2ccc(Cl)cc2)nc2ccc(Br)cn12 | inconclusive: 31.6 µM [inhibitor, single point] |
| O=C(CN1CCOCC1)Nc1ncc(Cc2cccc3ccccc23)s1 | inconclusive: 22.4 µM [inhibitor, single point] |
| COc1ccc(C2c3sc(=O)[nH]c3SC3C4CCC(C4)C23)cc1OC (stereo not drawn) | inconclusive: 35.5 µM [inhibitor, single point] |
| CCOc1ccc(-c2ccc(SCC(=O)NC3CCCCC3)nn2)cc1 | inconclusive: 5.62 µM [inhibitor, partial curve, poor fit] |
| CCc1ccc(CN(C)CC(O)COc2cccc3ccccc23)cc1 (stereo not drawn) | inconclusive: 35.5 µM [inhibitor, single point] |
| CCN(CC)c1nc(NNC(=O)c2ccccc2)nc(N(CC)CC)n1 | inconclusive: 10 µM [inhibitor, partial curve, poor fit] |
| CCOc1cc(C=O)cc(N=Nc2cccc([N+](=O)[O-])c2)c1O | inactive |
| CCN(CC(=O)NCc1ccc(F)cc1)C(=O)c1cc2ccccc2o1 | inconclusive: 0.631 µM [inhibitor, full curve, poor fit] |
| CCOc1ccc(S(=O)(=O)N(CC(=O)NCc2ccccc2OC)c2ccccc2)cc1 | inactive |
| COc1cccc(CNc2nc3ccccc3n2CCN2CCCCC2)c1 | inconclusive: 17.8 µM [inhibitor, single point] |

| SMILES | Potency |
| --- | --- |
| COc1cccc(O)c1CN1CCC(C(=O)Nc2ccc(-c3cccc(C)c3)cc2)CC1 | inconclusive: 31.6 µM [inhibitor, single point] |
| CCN(CC)C(=O)C1CCN(S(=O)(=O)c2c(C)noc2/C=C/c2cccc(C)c2)CC1 | inconclusive: 35.5 µM [inhibitor, single point] |
| CCOc1ccccc1NC(=O)C(OC(=O)c1ccc(O)cc1)c1ccccc1 (stereo not drawn) | inconclusive: 20 µM [inhibitor, single point] |
| CCCSC(=S)NC1CCS(=O)(=O)C1 (stereo not drawn) | active: 11.2 µM |
| CCCN1CCN(CCCNC(=O)c2ccccc2NC(=O)C2=C(C)OCCS2)CC1 | inconclusive: 35.5 µM [inhibitor, single point] |
| CCN(CC)c1cc2c(cc1F)c(=O)c(S(=O)(=O)c1ccc(OC)cc1)cn2Cc1ccccc1 | inconclusive: 22.4 µM [inhibitor, single point] |
| COc1cc(-c2cc(OC)c3c(C)oc(C)c3c(=O)c2)ccc1O | inactive |
| O=C(CNCc1ccccc1Cl)Nc1cc(S(=O)(=O)N2CCOCC2)ccc1Cl | inactive |
| CN1CCN(S(=O)(=O)c2cccc(C(=O)N(C)CC(=O)Nc3ccc(F)c(F)c3F)c2)CC1 | inconclusive: 0.447 µM [inhibitor, full curve, poor fit] |
| Cc1ccc(NC(=O)CN2CCSc3ccc(S(=O)(=O)N4CCCC4)cc32)cc1 | inconclusive: 15.8 µM [inhibitor, single point] |
| Cc1c(CCNC(=O)c2ccco2)sc2nc(-c3ccc(F)cc3)nn12 | inconclusive: 7.94 µM [inhibitor, partial curve, poor fit] |
| CCN(Cc1nc(-c2ccc(OC)cc2)oc1C)S(=O)(=O)c1ccc(C)cc1 | inconclusive: 12.6 µM [inhibitor, partial curve, poor fit] |
| COc1ccc(CCC(C)Nc2ccccc2F)cc1 (stereo not drawn) | inactive |
| COc1ccc(CCNC(=O)c2ccc3c(c2)N(Cc2ccc(Cl)cc2)C(=O)c2ccccc2S3)cc1OC | inconclusive: 8.91 µM [inhibitor, partial curve] |
| O=C(CCc1nnc2n(Cc3ccc(F)cc3)c(=O)c3ccccc3n12)NCCN1CCOCC1 | inconclusive: 5.62 µM [inhibitor, single point] |
| COc1cc(C)ccc1OCCOc1ccccc1Cl | inconclusive: 14.1 µM [inhibitor, partial curve, poor fit] |
| Cc1ccc(CCC(=O)Nc2ccc(N(C)C)cc2)o1 | inactive |
| COc1ccc(-c2nc3ncccn3c2Br)cc1 | inconclusive: 5.01 µM [inhibitor, full curve, poor fit] |
| Cc1cc(C)cc(NS(=O)(=O)c2ccc3[nH]cc(C(=O)N4CCc5ccccc54)c(=O)c3c2)c1 | inactive |
| CCOCCCN1C(=O)c2[nH]nc(-c3ccccc3O)c2C1c1ccc(CC)cc1 (stereo not drawn) | inconclusive: 25.1 µM [inhibitor, single point] |
| CC(=O)N1CCc2cc(S(=O)(=O)CCC(=O)N3CCc4ccccc4C3)ccc21 | inconclusive: 7.08 µM [inhibitor, partial curve, poor fit] |

| SMILES | Potency |
| --- | --- |
| COc1cccc(/C=N/Nc2ccc(C(=O)O)cc2)c1O | inconclusive: 35.5 µM [inhibitor, single point] |
| O=C1C(Cl)=C(Oc2ccccc2)C(=O)c2ccccc21 | inconclusive: 17.8 µM [inhibitor, single point] |
| Cc1nc(Nc2ccccc2)c2oc3ccc(Cl)cc3c2n1 | inconclusive: 14.1 µM [inhibitor, partial curve] |
| COc1ccc(NC(=S)N2CCC(C(=O)c3ccc(F)cc3)CC2)c(OC)c1 | inconclusive: 5.01 µM [inhibitor, full curve] |
| COc1ccccc1N1C(=O)N(C(C)=O)C2C1Nc1ccccc1N2C (stereo not drawn) | inconclusive: 12.6 µM [inhibitor, partial curve, poor fit] |
| CCCCCc1ccc(-c2cn(CCCOCc3ccccc3)nn2)cc1 | inconclusive: 11.2 µM [inhibitor, partial curve] and inconclusive: 17.8 µM [inhibitor, single point] |
| Cc1cccc(NC(=O)C2CCN(c3nc4ccccc4[nH]3)CC2)c1C | inconclusive: 35.5 µM [inhibitor, single point] |
| Cc1occc1C(=O)N1CCCC(N2CCN(c3cccc(C(F)(F)F)c3)CC2)C1 (stereo not drawn) | inconclusive: 17.8 µM [inhibitor, single point] |
| Cc1ccc(OCC(=O)O)c(O)c1 | inactive |
| COc1ccc(NC(=O)Cn2c(SCc3ccc(F)cc3)nc3cccnc32)cc1OC | inconclusive: 35.5 µM [inhibitor, partial curve, poor fit] |
| CCOCCCn1c(=S)[nH]c2cc(C(=O)NC3CCCC(C)C3C)ccc2c1=O (stereo not drawn) | inactive |
| Cc1ccc(NC2c3ncccc3C(=O)N2c2ccccc2C)cc1C (stereo not drawn) | inconclusive: 7.08 µM [inhibitor, partial curve, poor fit] |
| CC(C)(C)CN1CCN(Cc2nc(-c3ccc(F)cc3)cs2)CC1CCO (stereo not drawn) | inconclusive: 3.16 µM [inhibitor, full curve] |
| Cc1cc[n+](C(C)C(=O)c2ccc(-c3ccccc3)cc2)cc1 (stereo not drawn) | inconclusive: 35.5 µM [inhibitor, partial curve, poor fit] |
| O=C(NCCc1ccc(Cl)cc1)c1ccc(CS(=O)Cc2ccccc2Cl)o1 (stereo not drawn) | inconclusive: 22.4 µM [inhibitor, single point] |
| O=C(c1ccco1)N1CCN(C(=O)c2ccco2)C1=S | active: 11.2 µM |
| Cc1ccc(NC2=C(Cl)C(=O)N(C3CCCCC3)C2=O)cc1 | inconclusive: 1 µM [inhibitor, full curve] |
| Cc1ccc(NC(=O)COC(=O)COc2cccc3c2OC(C)(C)C3)cc1S(=O)(=O)N1CCOCC1 | inactive |
| C=CCC[C@H](Cc1ccc(F)cc1)C(=O)OC[C@@H](NC(=O)[C@H](CC=C)CC(=O)NCCO)C(C)(C)C | inconclusive: 28.2 µM [inhibitor, single point] |
| CCc1cccc(NC(=O)Cn2c(=O)n(CC(=O)NCCc3ccccc3)c(=O)c3ccccc32)c1 | inactive |
| Cc1noc(/C=C/c2nn(C)cc2Cl)c1[N+](=O)[O-] | inconclusive: 35.5 µM [inhibitor, single point] |
